Experiment [1] has as its target T1, Strep-tagged CDAN1 (ST-CDAN1), wildtype (human, UniProt Q8IWY9 1-1227).
T1 construct: Codanin-1 (CDAN1), human, 1227 residues; cDNA from Horizon Discovery/Dharmacon, its point mutation S421F corrected; same construct used in Expi293 and in Flp-In 293 T-REx cells; dimer by SEC-MALS and cryo-EM; also called Strep-CDAN1; WT CDAN1; source: Expi293, transiently transfected, in lysate and purified in complexes (anti-FLAG, Strep-Tactin); Flp-In 293 T-REx, transiently transfected, in …
T1 sequence: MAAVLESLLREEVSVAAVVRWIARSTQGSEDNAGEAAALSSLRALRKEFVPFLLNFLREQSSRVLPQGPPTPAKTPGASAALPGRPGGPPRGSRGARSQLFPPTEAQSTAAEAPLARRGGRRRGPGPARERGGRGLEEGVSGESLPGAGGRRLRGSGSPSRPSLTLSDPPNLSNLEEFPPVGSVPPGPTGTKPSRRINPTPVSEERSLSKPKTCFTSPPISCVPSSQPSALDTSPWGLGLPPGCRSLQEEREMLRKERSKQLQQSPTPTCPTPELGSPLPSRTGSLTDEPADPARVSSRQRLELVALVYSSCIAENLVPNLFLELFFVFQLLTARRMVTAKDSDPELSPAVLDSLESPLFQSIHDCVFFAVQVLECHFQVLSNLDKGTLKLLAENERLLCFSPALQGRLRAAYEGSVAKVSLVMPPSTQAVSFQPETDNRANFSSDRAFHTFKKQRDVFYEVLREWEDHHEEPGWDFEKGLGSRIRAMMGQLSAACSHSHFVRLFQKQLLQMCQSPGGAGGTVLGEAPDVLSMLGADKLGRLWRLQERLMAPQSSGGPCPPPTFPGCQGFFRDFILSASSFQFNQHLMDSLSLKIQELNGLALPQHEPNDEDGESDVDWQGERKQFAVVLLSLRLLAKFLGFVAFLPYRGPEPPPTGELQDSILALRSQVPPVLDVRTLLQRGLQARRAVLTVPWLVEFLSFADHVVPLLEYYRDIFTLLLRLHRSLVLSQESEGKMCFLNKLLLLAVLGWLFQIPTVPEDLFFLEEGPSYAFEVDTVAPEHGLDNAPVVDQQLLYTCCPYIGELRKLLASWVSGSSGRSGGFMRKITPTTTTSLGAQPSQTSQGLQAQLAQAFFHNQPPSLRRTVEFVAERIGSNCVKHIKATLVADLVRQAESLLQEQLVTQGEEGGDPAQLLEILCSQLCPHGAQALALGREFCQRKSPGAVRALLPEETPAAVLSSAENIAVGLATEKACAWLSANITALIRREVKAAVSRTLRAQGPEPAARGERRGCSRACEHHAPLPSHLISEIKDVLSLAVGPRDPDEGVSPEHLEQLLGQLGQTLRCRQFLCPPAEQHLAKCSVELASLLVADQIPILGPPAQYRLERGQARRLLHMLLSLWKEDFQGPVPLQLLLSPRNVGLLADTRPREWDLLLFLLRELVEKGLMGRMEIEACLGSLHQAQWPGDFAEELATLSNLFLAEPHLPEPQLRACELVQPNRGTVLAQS
Put plainly: pull-down; Strep-Tactin pulldown of transiently transfected ST-CDAN1 variants from Flp-In 293 T-REx lysates; endogenous ASF1A, ASF1B and CDIN1 detected by immunoblotting; IP buffer with 1% Triton X-100, 1 hr at 4 °C. (Immunoblotting shows a protein as a band on a membrane.)

In experiment [2] the target is T2, Strep-CDAN1 HMHA1* BDA1* HMHA2* (three elements mutated) (human) (UniProt Q8IWY9).
T2 sequence: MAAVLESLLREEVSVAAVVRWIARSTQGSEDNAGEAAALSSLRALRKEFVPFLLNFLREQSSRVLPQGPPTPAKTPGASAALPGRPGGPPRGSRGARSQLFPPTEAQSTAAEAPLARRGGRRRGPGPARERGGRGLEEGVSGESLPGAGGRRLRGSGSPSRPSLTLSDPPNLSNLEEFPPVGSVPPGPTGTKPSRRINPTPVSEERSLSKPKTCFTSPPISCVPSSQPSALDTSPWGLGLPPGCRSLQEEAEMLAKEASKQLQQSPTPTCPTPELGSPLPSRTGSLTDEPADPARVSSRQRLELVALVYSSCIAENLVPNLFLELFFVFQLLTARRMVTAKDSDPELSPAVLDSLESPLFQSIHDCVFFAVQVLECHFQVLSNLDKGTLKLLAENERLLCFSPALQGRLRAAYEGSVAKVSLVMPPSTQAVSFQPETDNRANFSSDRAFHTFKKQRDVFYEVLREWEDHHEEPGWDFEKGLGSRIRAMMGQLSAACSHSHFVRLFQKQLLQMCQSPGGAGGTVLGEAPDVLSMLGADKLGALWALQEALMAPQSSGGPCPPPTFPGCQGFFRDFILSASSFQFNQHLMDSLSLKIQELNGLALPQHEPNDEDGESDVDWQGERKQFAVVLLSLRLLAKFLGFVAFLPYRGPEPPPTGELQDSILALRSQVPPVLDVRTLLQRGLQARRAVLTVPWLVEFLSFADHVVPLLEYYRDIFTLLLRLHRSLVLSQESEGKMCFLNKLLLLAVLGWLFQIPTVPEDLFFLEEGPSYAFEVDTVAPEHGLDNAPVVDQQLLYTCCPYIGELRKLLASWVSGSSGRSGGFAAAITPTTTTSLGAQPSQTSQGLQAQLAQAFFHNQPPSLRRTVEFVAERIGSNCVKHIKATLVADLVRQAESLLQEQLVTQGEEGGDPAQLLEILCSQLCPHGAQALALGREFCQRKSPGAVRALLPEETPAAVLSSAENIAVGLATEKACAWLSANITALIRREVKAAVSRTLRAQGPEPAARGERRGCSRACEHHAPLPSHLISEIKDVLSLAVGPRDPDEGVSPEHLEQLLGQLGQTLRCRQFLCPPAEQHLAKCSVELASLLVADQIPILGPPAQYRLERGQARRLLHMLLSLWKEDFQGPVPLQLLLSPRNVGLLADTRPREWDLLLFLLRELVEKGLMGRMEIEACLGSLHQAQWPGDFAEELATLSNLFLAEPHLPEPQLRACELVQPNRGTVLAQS
Described as above.

No constants are given. Whether binding was seen depends on the method and setting. In cells and extracts the contact can be indirect. Some binding calls cover weakened binding; strength is not graded here. For some assays here: Sequences can lack the tags named with a protein.

B1: FLAG-tagged CDIN1 (F-CDIN1) (natural protein, UniProt Q9Y2V0 1-281, looked up)
chain: MILTKAQYDEIAQCLVSVPPTRQSLRKLKQRFPSQSQATLLSIFSQEYQKHIKRTHAKHHTSEAIESYYQRYLNGVVKNGAAPVLLDLANEVDYAPSLMARLILERFLQEHEETPPSKSIINSMLRDPSQIPDGVLANQVYQCIVNDCCYGPLVDCIKHAIGHEHEVLLRDLLLEKNLSFLDEDQLRAKGYDKTPDFILQVPVAVEGHIIHWIESKASFGDECSHHAYLHDQFWSYWNRFGPGLVIYWYGFIQELDCNRERGILLKACFPTNIVTLCHSIA
notes: C15orf41); cDNA synthesized by IDT; source: Expi293, transiently transfected, in lysate and purified in complexes (anti-FLAG, Strep-Tactin); not shown: 3xFLAG, N-terminal, kept
Take B1: the binding entry in experiment [1] and in experiment [2] was “binds” throughout.

Values taken from publication PMC11911400, “Mechanism of ASF1 engagement by CDAN1” (Nature Communications, 2025).
